Among all 44,000 compounds or so, about 340 (0.77%) were called active. Another 5% or so got no clear call; they are omitted. Calls follow the shape of the dose curve; as a rule, active = well fitted inhibition curve with a large enough effect; inconclusive = small, poorly fitted or top-dose-only effect; inactive = flat fitted curve, though single readings scatter. Some of the results follow.
assay: Acumen qHTS Assay for Inhibitors of the mTORC1 Signaling Pathway in MEF (Tsc2-/-, p53-/-) Cells: Sytravon; details: phospho-rpS6 immunofluorescence/PI, 24 h; series mostly up to 38.3 µM; activity change, negative = inhibition: at the top concentration;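 also: plate controls were DMSO for no effect and rapamycin for full effect; nearly all actives have a fitted effect of over 50% in size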
Method in brief: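 Tsc2-/-, p53-/- MEFs (empty-vector stable line) in DMEM + 10% FBS were treated with compounds 24 h at 37 degree Celsius, fixed, and immunostained for phospho-rpS6 (Alexa-488) with propidium iodide counterstain. Laser-scanning cytometry gave % positive cells, normalized against 7.5 nM rapamycin and DMSO.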

Activity change, negative = inhibition, inactive:
O=C(Cn1cc(S(=O)(=O)c2ccc(F)cc2)c(=O)c2cc3c(cc21)OCO3)Nc1ccccc1 -20.5%
Cc1ccn2c(=O)c(C(=O)Nc3ccc(F)c(C(F)(F)F)c3)cnc2c1 -5.17%
CCOc1ccc(-c2nonc2NC(=O)c2oc3ccc(Cl)cc3c2C)cc1 -19.3%
Cc1cccc(NC(=O)C(=O)NCC(c2cccnc2)N2CCc3ccccc32)c1C (configuration not stated) 6.89%
COC(=O)c1ccccc1NC(=O)CCCn1nc(C)c2sc3ccccc3c2c1=O 0.771%
COc1cccc(NC(=O)c2oc3ccccc3c2NC(=O)COc2ccccc2C)c1 -15%
COc1ccc(-c2nnn3c2nc(NCc2ccccc2)c2ccccc23)cc1 -24%
CC1=C(C(=O)Nc2ccc(C)cc2C)C(CC(C)C)n2nc(SCc3ccccc3C)nc2N1 (configuration not stated) -25.6%
O=c1c2sc3ccccc3c2n(Cc2ccc(F)cc2)c(=O)n1Cc1ccccc1 -5.11%
CCc1cccc(CC)c1NC(=O)CCS(=O)(=O)c1ccc(Br)cc1 -5.6%
COc1ccc(-c2ccc(NS(=O)(=O)c3ccccc3)cc2)nn1 -3.43%
CCOc1ccc(-c2cc(C(=O)NCc3ccc(OCC)c(OC)c3)[nH]n2)cc1 -2.74%
Cc1cc(C)n2nc(SCC(=O)Nc3ccc(O)cc3)nc2n1 -5.85%
Cc1ccc(NC(=O)CSc2ncccc2C(=O)Oc2ccccc2Cl)cc1Cl 13.3%
COc1ccc2[nH]cc(CCNC(=O)Nc3c(C)cccc3C)c2c1 -2.47%
CCOC(=O)c1cc(-c2ccccc2)n(CCC(=O)Nc2ccc(OC)c(Cl)c2)c1C -6.31%
COc1cc(C)ccc1OCCSc1nc2ccc(NC(=O)c3ccc4c(c3)OCO4)cc2s1 0.228%
Cc1ccccc1-c1nc2c(c(SCc3cccc(Cl)c3)n1)Cc1c(CO)cnc(C)c1O2 6.3%
Cc1cc(NC(=O)CN(C)S(=O)(=O)c2ccc3c(c2)CCCC(=O)N3)ccc1Br -10.4%
CCc1ccc(NC(=O)Cn2c(=O)n(CCCC(=O)NCc3ccccc3OC)c(=O)c3ccccc32)cc1 -10.5%
COc1cc(-c2nc(Cn3nnc(C(=O)Nc4ccccc4C)c3C)c(C)o2)cc(OC)c1OC -1.78%
COc1ccc(C)cc1NC(=O)c1ccc2c(c1)N(Cc1cccc(Cl)c1)C(=O)c1ccccc1S2=O (configuration not stated) -6.28%
Clc1cccc(N2CCN(c3nc4ccccc4c4nc(-c5cccnc5)nn34)CC2)c1 0.312%
CC(=O)N1c2ccc(S(=O)(=O)N3CCCCCC3)cc2CC1C(=O)NCc1cccc(F)c1 (configuration not stated) 0%
Cc1ccc(S(=O)(=O)c2nc(-c3cccs3)oc2SC(C)c2ccccc2)cc1 (configuration not stated) -16.4%
CCOc1ccc(CC(=O)NCCS(=O)(=O)N2CCN(c3ccccc3OC)CC2)cc1 -14.4%
CCS(=O)(=O)N1CCc2cc(C(=O)N3CCN(c4ccccc4)CC3)ccc21 0.335%
CCCCC(=O)Nc1cc(-c2nc3ccccc3o2)ccc1OC 2.48%
CCOC(=O)c1noc2ncn(CC(=O)Nc3ccc(OC)c(Cl)c3)c(=O)c12 -4.45%
CCCC(=O)OCc1cnc(C)c2oc(=O)c(C(=O)Nc3ccc(F)cc3C)cc12 0%
Cc1cccc(CNC(=O)C2CCN(S(=O)(=O)c3cccc4nonc34)CC2)c1 -3.03%
CCC1=Nc2cc(C(=O)N3CCC(C)CC3)ccc2Sc2ccc(C)cc21 2.95%
Cc1ccc(C)c(NC(=O)C2CCCN2S(=O)(=O)c2ccc3c(c2)CCCC(=O)N3)c1 (configuration not stated) 5.64%
COc1ccc(-c2noc(CNC(=O)c3ccc(OC)cc3OC)n2)cc1 -6.57%
COc1cccc(-c2noc(COc3cccc(C)c3C)n2)c1 3.37%
CCOc1ccc(CCNC(=O)C2CC(=O)N(CCc3ccc(OC)c(OC)c3)C2)cc1OCC (configuration not stated) 11.4%
Cc1ccc2nc(N3CCN(c4ccc(F)cc4)CC3)c3nnnn3c2c1 -8.95%
CCOC(=O)c1c(NC(=O)COc2ccc(OC)cc2)sc(C(=O)N(CC)CC)c1C -0.669%
CCCCN(CC)CCNC(=O)c1nn(-c2ccc(OC)cc2)c(=O)c2c1c1ccccc1n2C 1.34%
N#C/C(=C\c1ccccc1)c1nc(-c2cc3c(ccc4ccccc43)oc2=O)cs1 8.34%
CCOC(=O)c1cccc(NC(=O)Cn2cnc3nc4c(cc3c2=O)CCCC4)c1 0.279%
CCN(CC)CCCNC(=O)c1ccc2c(c1)NC(=O)C(CS(=O)(=O)Cc1ccc(F)cc1Cl)N2 (configuration not stated) 0%
COCCNC(=O)c1sc2nc3n(c(=O)c2c1C)CCC3 5.9%
COc1ccc(N2CC(c3nc(-c4ccccc4C)no3)CC2=O)cc1Cl (configuration not stated) -3.76%
CCc1ccc(NS(=O)(=O)c2ccc3[nH]cc(C(=O)NCCc4ccccc4)c(=O)c3c2)cc1 -7.22%
Cc1ccc(-c2onc(C)c2C)cc1S(=O)(=O)N1CCc2ccccc21 11.1%
Cc1cccc(CCNC(=O)CCc2c(C)nc3c(-c4ccc(F)cc4)c(C)nn3c2C)c1 -11.2%
CN1CCN(c2ccc(-c3nc(-c4ccccc4)no3)cc2[N+](=O)[O-])CC1 -11.3%
COC(=O)c1ccc(NC(=O)C(c2ccccc2)N2Cc3ccccc3C2=O)cc1 (configuration not stated) 0.469%
Cc1nc(-c2ccc(Cl)cc2)sc1CCNC(=O)C(=O)Nc1ccccc1C#N 1.77%
COc1ccc(N2CCN(C(=O)c3cc4c(s3)-c3c(C)cccc3OC4)CC2)cc1 -6.34%
Cc1cc(C)cc(NC(=O)C2CCCN(c3nnc(-n4c(C)ccc4C)s3)C2)c1 (configuration not stated) -0.84%
CCCc1ccc(OC(=O)c2sc3ncn(Cc4cccc(F)c4)c(=O)c3c2C)cc1 0.133%
COc1ccc(NC(=O)Cn2c(SCc3c(F)cccc3Cl)nc3ccncc32)cc1OC -4.01%
COCCn1c(SCC(=O)Nc2ccc(Br)cc2)nc2c([nH]c3ccccc32)c1=O -1.63%
CCCCN(C(=O)Nc1ccc(OCC)cc1)C1CCN(C(C)=O)CC1 5.57%
CCN(CC)c1ccc(NC(=O)C2CCCN(S(=O)(=O)c3ccc4c(c3)oc(=O)n4C)C2)c(C)c1 (configuration not stated) -9.41%
CCC(Sc1nc2n[nH]c(C)c2c(=N)n1-c1ccc(Br)cc1)C(=O)N(CC)CC (configuration not stated) -8.62%
COc1ccccc1CSc1nc2n(n1)C(c1ccccc1)C(C(=O)Nc1ccc(C)cc1)=C(C)N2 (configuration not stated) 3.95%
CCOC(=O)c1c(S(=O)(=O)N2CCN(c3cc(Cl)ccc3C)CC2)c(C)n(C)c1C -10.3%
Cc1ccc(NC(=O)C2CCCN(S(=O)(=O)c3ccc(C)cc3)C2)cc1 (configuration not stated) -4.36%
COc1ccc(NC(=O)Cn2ncc3c4ccccc4n(Cc4ccccc4)c3c2=O)cc1OC 1.7%
COc1cc(NS(=O)(=O)c2ccc3c(c2)OCC(C(=O)N2CCCC2)O3)cc(OC)c1 (configuration not stated) -0.873%
COc1ccccc1-c1ncnn1-c1sc2c(c1C#N)CCCCC2 4.67%
Cc1ccc(NC(=O)Cn2nc(-c3ccc(Cl)cc3)c3ccccc3c2=O)cc1 -7.09%
COc1ccc(OC)c(S(=O)(=O)NCCc2sc(C)nc2C)c1 -10.1%
Cc1c(Cl)cccc1NC(=O)CCS(=O)(=O)c1cccc2nsnc12 -1.05%
CCCCNC(=O)c1ccc(-c2nc(CN3CCc4ccccc43)c(C)o2)cc1 -4.59%
Cc1cccc(COc2ccc(-c3cc(C(F)(F)F)n4nc(C)cc4n3)cc2)c1 1.92%
Cc1ccc(CNC(=O)CCN2C(=O)C(C)Oc3ccc(C)cc32)cc1 (configuration not stated) -2.78%
CCc1ccc(-c2nc3cc(NC(=O)c4ccc(F)cc4)ccc3o2)cc1 6.77%
Cc1ccc(NC(=O)CCNS(=O)(=O)c2cccs2)cc1F 10.5%
COc1cccc(-c2nn(C)c3sc(C(=O)N4CCN(c5cccc(C(F)(F)F)c5)CC4)cc23)c1 -8.57%
Cc1cn2c(=O)cc(COC(=O)COc3ccc(F)cc3)nc2s1 -8.98%
CSc1ncc2c(n1)-c1ccccc1N(Cc1ccccc1C)S2(=O)=O 3.84%
COc1ccc(-n2c(=O)c3c(c4cc(OC)ccc4n3C)n(Cc3c(F)cccc3Cl)c2=O)cc1 -4.4%
COc1cccc(CCNC(=O)c2cnc3sc(N4CCCC4)nn3c2=O)c1 -1.48%
Cc1cccc(-n2c3nc(=O)n(C)c(=O)c-3cc3c(C)nn(-c4ccccc4)c32)c1C 0.242%
COC1(C(F)(F)F)NC(=O)N(c2ccc(F)cc2)C1=O (configuration not stated) 0.968%
CSc1nc2sc3c(c2c(=O)n1-c1ccc(C)cc1)CCCC3 -0.806%
COc1ccc(Cl)cc1NC(=O)N1CCC2(CC1)Oc1ccccc1C(=O)N2Cc1ccc(F)cc1 0.132%
CCOC(=O)C1=C(CN(CC)Cc2ccccc2)NC(=O)NC1c1ccc(Cl)cc1 (configuration not stated) 1.22%
COc1ccc(NC(=O)N2CCC(n3c(C)nc4cccnc43)CC2)cc1OC 0%
CCOC(=O)c1cnn(-c2cccc(Cl)c2)c1C1CCN(C(=O)OC(C)(C)C)CC1 -8.61%
Cc1ccc(OCCSc2nc3ccc(NC(=O)COc4ccc(C)cc4)cc3s2)cc1 0.65%
CC1CCc2c(sc3nnn(CC(=O)Nc4ccccc4Cl)c(=O)c23)C1 (configuration not stated) -0.231%
Fc1ccc(NCc2nc3ccccc3n2CCOc2ccccc2Cl)cc1 0%
CCCn1cc(S(=O)(=O)c2ccc(OCC)cc2)c(=O)c2cc(C)ccc21 1.1%
CCCCC(=O)Nc1cc(-c2cn3cccnc3n2)ccc1C -1.18%
CCOc1ccc(-c2c(C)nn3c(C)c(C(=O)NC(C)c4ccccc4)cnc23)cc1OCC (configuration not stated) -0.979%
Cc1c(-c2cccc(NC(=O)Cc3ccccc3)c2)nc2ncccn12 0%
O=C(CCSCc1ccccc1Cl)NCCc1ccccc1 3.26%
O=C(Cn1ccn(-c2ccc(F)c(F)c2)c(=O)c1=O)NCc1ccccc1 0.13%
Cc1cc(C)c(NC(=O)c2cc(S(=O)(=O)N3CCCC3)cn2C)c(C)c1 -11.7%
COc1cc(Cl)c(S(=O)(=O)N2CCN(c3c(C)cccc3C)CC2)cc1Cl -13.7%
COc1ccc(CNc2nc(-c3ccccc3)nn2C(=O)c2ccccc2OC)cc1 -16.9%
Cc1ccc(OCCSc2nc3ccccc3n2CC(=O)N2CCOCC2)cc1C 0.778%
